From paper PMC4336329 (PLoS ONE, 2015)
Hit rate of the full screen: of about 310,000 compounds, about 2,200 (0.71%) showed an effect of 50% or more. Effects have a minus sign here. Some of the results follow.

These compounds were tested against human ether-à-go-go-related gene (hERG) potassium channel (human, UniProt Q12809) (assay: primary screen, population patch clamp on CHO cells stably expressing hERG).
Sequence of human ether-à-go-go-related gene (hERG) potassium channel (Q12809 whole entry, looked up): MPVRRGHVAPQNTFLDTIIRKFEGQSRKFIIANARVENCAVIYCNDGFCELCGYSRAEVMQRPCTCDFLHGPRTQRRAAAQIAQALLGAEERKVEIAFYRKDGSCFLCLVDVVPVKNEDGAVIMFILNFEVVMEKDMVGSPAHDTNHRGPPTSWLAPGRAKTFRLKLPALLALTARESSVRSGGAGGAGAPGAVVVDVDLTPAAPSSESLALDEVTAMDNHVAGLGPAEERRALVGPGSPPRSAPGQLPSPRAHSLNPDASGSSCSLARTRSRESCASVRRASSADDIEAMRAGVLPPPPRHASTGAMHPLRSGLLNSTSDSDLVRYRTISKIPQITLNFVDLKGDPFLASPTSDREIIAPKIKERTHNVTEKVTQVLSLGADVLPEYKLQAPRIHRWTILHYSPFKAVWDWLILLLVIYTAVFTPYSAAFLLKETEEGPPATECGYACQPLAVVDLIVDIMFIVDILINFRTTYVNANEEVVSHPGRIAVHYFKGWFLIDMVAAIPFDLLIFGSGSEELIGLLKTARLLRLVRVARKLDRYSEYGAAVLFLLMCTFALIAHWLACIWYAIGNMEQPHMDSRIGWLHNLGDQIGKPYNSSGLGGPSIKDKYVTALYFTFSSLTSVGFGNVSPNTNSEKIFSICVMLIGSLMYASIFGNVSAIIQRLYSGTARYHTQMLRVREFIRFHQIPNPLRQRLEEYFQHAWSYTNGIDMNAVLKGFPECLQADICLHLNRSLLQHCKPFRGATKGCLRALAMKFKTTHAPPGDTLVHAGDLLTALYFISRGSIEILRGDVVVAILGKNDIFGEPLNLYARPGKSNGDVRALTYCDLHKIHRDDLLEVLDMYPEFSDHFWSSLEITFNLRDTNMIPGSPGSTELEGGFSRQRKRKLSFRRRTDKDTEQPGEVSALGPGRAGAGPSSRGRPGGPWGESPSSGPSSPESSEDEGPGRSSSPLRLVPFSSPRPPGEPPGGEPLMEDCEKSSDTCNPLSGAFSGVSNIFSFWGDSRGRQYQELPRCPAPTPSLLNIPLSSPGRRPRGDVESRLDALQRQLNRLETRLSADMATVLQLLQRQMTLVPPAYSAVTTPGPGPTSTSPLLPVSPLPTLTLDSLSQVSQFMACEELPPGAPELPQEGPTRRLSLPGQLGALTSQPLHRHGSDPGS

With `CN1C(C(=O)Nc2ccc(OC(F)(F)F)cc2)=CC(c2ccco2)=NS1(=O)=O` as the compound, how does the “hERG current change (%, negative = inhibition) at 1uM” value read?
The value was 12.2%.

How did the “hERG current change (%, negative = inhibition) at 1uM” value turn out when `O=C(NC1CCCC1)c1cccc(Oc2ccccc2)c1` was run?
Its value is 4.9%.

How did the “hERG current change (%, negative = inhibition) at 1uM” value turn out when `O=C(c1cc2c(ccc3ccccc32)o1)N1CCN(c2ncc(C(F)(F)F)cc2Cl)CC1` was run?
The value was 10.3%.

Which “hERG current change (%, negative = inhibition) at 1uM” value does the source give for `COc1ccc(NC(=O)C(NC(=O)CNC(C)=O)c2ccc(C)cc2)cc1` (stereo not drawn) here?
Its value is 9.3%.

`CCOc1ccccc1NC(=S)Nc1ccc(S(N)(=O)=O)cc1` was tested. Which “hERG current change (%, negative = inhibition) at 1uM” value did it give?
Its value is 9.57%.

How did the “hERG current change (%, negative = inhibition) at 1uM” value turn out when `Cc1cc(C)nc(N2CCN(C(=O)CCC(=O)Nc3nnc(CC(C)C)s3)CC2)n1` was run?
Its value is 10.7%.

For `Cc1ccc(N(CC(=O)Nc2cc(C)ccc2C)S(C)(=O)=O)cc1`, which “hERG current change (%, negative = inhibition) at 1uM” value is on record?
Its value is 15.8%.

`O=C1C=C(c2cccc(Cl)c2O)C[C@@H](c2ccc3c(c2)OCO3)C1` was tested. Which “hERG current change (%, negative = inhibition) at 1uM” value did it give?
The value was 9.66%.

Which “hERG current change (%, negative = inhibition) at 1uM” value does the source give for `CCN(CC)S(=O)(=O)c1ccc(-c2nnc(SCC(=O)Nc3ccc(OC)cc3)o2)cc1` here?
The value was -12.8%.

`Cc1ccc(NC(=O)CN2C(=O)NC(Cc3ccccc3)C2=O)cc1Cl` (stereo not drawn) was tested. Which “hERG current change (%, negative = inhibition) at 1uM” value did it give?
The value was 5.93%.

`NS(=O)(=O)c1ccc(CCNC(=O)C2CCCCN2S(=O)(=O)c2ccccc2)cc1` (stereo not drawn) was tested. Which “hERG current change (%, negative = inhibition) at 1uM” value did it give?
Its value is 1.84%.

With `O=C(NCc1cccnc1)C(=O)NCC1OCCN1S(=O)(=O)c1ccc(Cl)cc1` (stereo not drawn) as the compound, how does the “hERG current change (%, negative = inhibition) at 1uM” value read?
Its value is -1.76%.

Which “hERG current change (%, negative = inhibition) at 1uM” value does the source give for `CC(=O)Nc1ccc(NC(=O)c2ccc(NS(=O)(=O)c3cccc4cccnc34)cc2)cc1` here?
Its value is 17.9%.

For `Cc1nc(-c2ccc(C(=O)Nc3ccc(F)cc3)cc2)cs1`, which “hERG current change (%, negative = inhibition) at 1uM” value is on record?
The value was 10.8%.

For `Cc1ccc(F)cc1CNC(=O)C1CCC(=O)N(CCc2ccccc2)C1` (stereo not drawn), which “hERG current change (%, negative = inhibition) at 1uM” value is on record?
The value was -14.4%.

How did the “hERG current change (%, negative = inhibition) at 1uM” value turn out when `COc1ccc(-c2noc(CSc3ccc(C)cc3)n2)cc1` was run?
The value was 2.32%.

With `COCc1cc(=O)n2[nH]c(C)nc2n1` as the compound, how does the “hERG current change (%, negative = inhibition) at 1uM” value read?
Its value is -1.01%.

How did the “hERG current change (%, negative = inhibition) at 1uM” value turn out when `O=C(Nc1ccc(OC(F)(F)F)cc1)Oc1ccccc1N1CCOCC1` was run?
Its value is 8.29%.

With `COc1ccc(CCC(=O)OCC(=O)Nc2ccccc2OC(F)F)cc1OC` as the compound, how does the “hERG current change (%, negative = inhibition) at 1uM” value read?
Its value is 12%.

Which “hERG current change (%, negative = inhibition) at 1uM” value does the source give for `Cc1cc(NC(=O)C(C)SCC(=O)N(C)CC(=O)Nc2ccc(F)cc2)no1` (stereo not drawn) here?
The value was 10.4%.

How did the “hERG current change (%, negative = inhibition) at 1uM” value turn out when `C=CCc1cc(C)ccc1OCCn1ccnc1.O=C(O)C(=O)O` was run?
Its value is 15.4%.

Which “hERG current change (%, negative = inhibition) at 1uM” value does the source give for `O=C(O)c1cc([N+](=O)[O-])ccc1NCc1ccccc1Cl` here?
The value was 7.43%.

`CC1CN(C2CCN(C(=O)COc3ccc(Cl)cc3)CC2)CC(C)O1.O=C(O)C(=O)O` (stereo not drawn) was tested. Which “hERG current change (%, negative = inhibition) at 1uM” value did it give?
The value was -0.775%.

How did the “hERG current change (%, negative = inhibition) at 1uM” value turn out when `CC(=O)c1cn(CC(=O)Nc2ccc(C)cc2C)c2ccccc12` was run?
Its value is 6.43%.

How did the “hERG current change (%, negative = inhibition) at 1uM” value turn out when `CC(=O)Nc1ccc(S(=O)(=O)N2CCN(S(=O)(=O)c3ccc(F)c(F)c3F)CC2)cc1` was run?
The value was 8.97%.

`O=C(Nc1ccc(F)cc1)C1CCC(N2C(=O)c3ccccc3C2=O)CC1` (stereo not drawn) was tested. Which “hERG current change (%, negative = inhibition) at 1uM” value did it give?
Its value is 10.8%.

For `C=CCn1c(O)c(/C(C)=N/N2CCCCCC2)c(=O)[nH]c1=O`, which “hERG current change (%, negative = inhibition) at 1uM” value is on record?
The value was 4.55%.

For `CN(O)C(=O)Nc1ccc([N+](=O)[O-])cc1`, which “hERG current change (%, negative = inhibition) at 1uM” value is on record?
Its value is 12.7%.

With `Cn1c(SCC(=O)NNC(=O)c2ccccc2)nnc1C(F)(F)F` as the compound, how does the “hERG current change (%, negative = inhibition) at 1uM” value read?
The value was 11.6%.

How did the “hERG current change (%, negative = inhibition) at 1uM” value turn out when `Cn1c(NCC(O)c2ccccc2)nc2c1c(=O)n(Cc1ccc(Cl)c(Cl)c1)c(=O)n2C` (stereo not drawn) was run?
Its value is 3.66%.

`COc1ccc(C(O)P(=O)(OC(C)C)c2ccc(N(C)C)cc2)c(OC)c1` (stereo not drawn) was tested. Which “hERG current change (%, negative = inhibition) at 1uM” value did it give?
Its value is 16.6%.

How did the “hERG current change (%, negative = inhibition) at 1uM” value turn out when `Cc1ccc(C)c(N(C)C(=O)COc2cc(=O)n(C)c3ccccc23)c1` was run?
The value was -3.31%.

How did the “hERG current change (%, negative = inhibition) at 1uM” value turn out when `C=CCNc1nc(-c2cccc(OC)c2O)nc2ccccc12` was run?
Its value is 9.57%.

`Cc1ccc(C)c(Nc2nc(-c3ccncc3)nc3ccccc23)c1` was tested. Which “hERG current change (%, negative = inhibition) at 1uM” value did it give?
Its value is 1.82%.

Which “hERG current change (%, negative = inhibition) at 1uM” value does the source give for `C1=C(c2c[nH]c3ccccc23)CCNC1` here?
The value was 14.2%.

Which “hERG current change (%, negative = inhibition) at 1uM” value does the source give for `COc1cc(C2/C(=C(/O)c3ccccc3)C(=O)C(=O)N2c2ccccn2)ccc1O` (stereo not drawn) here?
The value was 18.5%.

How did the “hERG current change (%, negative = inhibition) at 1uM” value turn out when `CC(C)Cc1cc(C(=O)O)n[nH]1` was run?
Its value is 5.43%.

With `O=C(OCCC1Oc2cccnc2NC1=O)c1ccc(F)cc1` (stereo not drawn) as the compound, how does the “hERG current change (%, negative = inhibition) at 1uM” value read?
Its value is -0.117%.

Which “hERG current change (%, negative = inhibition) at 1uM” value does the source give for `O=C(Cn1nc(C(F)(F)F)c2c1CCC2)NC1CCCCC1` here?
Its value is 5.98%.

With `COCCN(C(=O)CSc1nnc(C)n1Cc1ccccc1)c1c(N)n(Cc2ccccc2)c(=O)[nH]c1=O` as the compound, how does the “hERG current change (%, negative = inhibition) at 1uM” value read?
The value was 13.1%.

Which “hERG current change (%, negative = inhibition) at 1uM” value does the source give for `Cc1ccc(/C=N/c2sc3c(c2C#N)CCCCC3)o1` here?
Its value is 7.67%.

`COc1ccccc1NC(=O)N1CCC(c2nc3cc(C)c(C)cc3[nH]2)CC1` was tested. Which “hERG current change (%, negative = inhibition) at 1uM” value did it give?
The value was -9.29%.

Which “hERG current change (%, negative = inhibition) at 1uM” value does the source give for `CC1(C)OC(=CC=Nc2ccc(Cl)cc2)OC1(C)C` here?
Its value is 11.5%.

`CC(=O)NC1=NN(c2ccccc2)C(=O)C1` was tested. Which “hERG current change (%, negative = inhibition) at 1uM” value did it give?
The value was 20.3%.

With `CC(O)[C@H]1CNC(=O)C(=O)N1CCC12CC3CC(CC(C3)C1)C2` (stereo partly drawn) as the compound, how does the “hERG current change (%, negative = inhibition) at 1uM” value read?
The value was 7.41%.

How did the “hERG current change (%, negative = inhibition) at 1uM” value turn out when `Cc1ccc(C2=NCCn3c2c2ccc([N+](=O)[O-])cc2[n+]3[O-])cc1` was run?
Its value is 12.2%.

For `Cc1ccc(CN(C)C(=O)C2CCC(=O)N(CC3CCCCC3)C2)o1` (stereo not drawn), which “hERG current change (%, negative = inhibition) at 1uM” value is on record?
Its value is 14.6%.

`Cc1cc(NC(=O)COc2ccc(Cl)cc2Cl)n(CCC#N)n1` was tested. Which “hERG current change (%, negative = inhibition) at 1uM” value did it give?
The value was 12.2%.

`CC(NC(=O)c1cc(-c2ccccn2)nc2ccc(Cl)cc12)C1CCCO1` (stereo not drawn) was tested. Which “hERG current change (%, negative = inhibition) at 1uM” value did it give?
The value was 10.3%.

How did the “hERG current change (%, negative = inhibition) at 1uM” value turn out when `CCOCCOC(=O)C(C)Oc1ccc(Oc2ncc(Cl)cc2Cl)cc1` (stereo not drawn) was run?
Its value is 5.76%.

With `O=C(c1cc([N+](=O)[O-])ccc1N1CCCC1)N1CCCCC1` as the compound, how does the “hERG current change (%, negative = inhibition) at 1uM” value read?
The value was 12.9%.

`Nc1ccccc1C#CC(=O)c1ccccc1` was tested. Which “hERG current change (%, negative = inhibition) at 1uM” value did it give?
The value was 15%.

How did the “hERG current change (%, negative = inhibition) at 1uM” value turn out when `Cc1ccc(NC(=S)NNS(=O)(=O)c2ccc3ccccc3c2)cc1Cl` was run?
Its value is 7.2%.

For `CCCCC1C(C#N)=C(C)NC2=C1C(=O)CC(C)(C)C2` (stereo not drawn), which “hERG current change (%, negative = inhibition) at 1uM” value is on record?
The value was 0.564%.

How did the “hERG current change (%, negative = inhibition) at 1uM” value turn out when `O=C(/C=C/c1cccs1)NCc1ccccc1` was run?
Its value is 9.97%.

With `CC(=O)Nc1ccc(N/C(N)=N/c2nc(C)cc(C)n2)cc1` as the compound, how does the “hERG current change (%, negative = inhibition) at 1uM” value read?
Its value is 8.5%.

`CCC(C)n1c(SCC(=O)NC2CCS(=O)(=O)C2)nc2ccccc2c1=O` (stereo not drawn) was tested. Which “hERG current change (%, negative = inhibition) at 1uM” value did it give?
Its value is -7.93%.
